Data published in US20260034092A1, “BIOCIDAL COMPOSITION” (priority 2022, published 2026).

System: Poliovirus ATCC VR-166, Adenovirus ATCC VR-1516, Norovirus ATCC TIB-71
Assay type: cell-based
Conditions: after 10 days of treatment on the sterile plastic container; calculated on the total of all study microorganisms

`CC(O)C(=O)O` (stereo not shown) [Treatment A, lactic acid] was tested, and the “efficiency percentage, Virucide activity” value was 37.8%.
